{"source": "paper PMC6919601", "about": "“Identification of Plasmodium dipeptidyl aminopeptidase allosteric inhibitors by high throughput screening” (PLoS ONE, 2019)", "note": "Out of some 110,000 compounds screened, about 230 (0.21%) showed an effect of 50% or more. This is one part of the list.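 Note: 30 min substrate incubation versus DMSO and 10 µM JCP410 controls.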"}
{"molecular_target": "DPAP1 (Plasmodium falciparum, UniProt Q8IIJ9)", "sequence (Q8IIJ9 whole entry, looked up)": "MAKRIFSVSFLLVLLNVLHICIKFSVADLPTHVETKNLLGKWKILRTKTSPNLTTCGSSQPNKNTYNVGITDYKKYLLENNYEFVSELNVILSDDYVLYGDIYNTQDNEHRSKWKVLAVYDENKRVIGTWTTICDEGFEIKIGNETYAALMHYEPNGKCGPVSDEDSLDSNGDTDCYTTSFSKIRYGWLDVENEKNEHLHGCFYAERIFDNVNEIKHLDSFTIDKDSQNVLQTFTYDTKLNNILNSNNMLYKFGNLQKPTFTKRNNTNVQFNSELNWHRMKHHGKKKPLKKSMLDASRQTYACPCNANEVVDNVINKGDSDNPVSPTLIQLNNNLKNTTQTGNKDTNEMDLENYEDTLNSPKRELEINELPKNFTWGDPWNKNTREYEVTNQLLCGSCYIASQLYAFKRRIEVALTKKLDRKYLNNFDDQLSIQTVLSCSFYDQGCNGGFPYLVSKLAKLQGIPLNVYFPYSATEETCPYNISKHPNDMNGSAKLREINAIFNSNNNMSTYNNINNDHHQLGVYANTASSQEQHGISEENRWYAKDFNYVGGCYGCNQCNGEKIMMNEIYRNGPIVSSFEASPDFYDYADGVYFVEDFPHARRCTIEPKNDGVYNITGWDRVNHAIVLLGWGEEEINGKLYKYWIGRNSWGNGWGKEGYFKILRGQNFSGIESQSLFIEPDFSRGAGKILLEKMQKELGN", "test": "primary screen, percent inhibition; read by cleavage of a fluorogenic dipeptide substrate; higher = more effect of the substance", "parameters": "species or system P. falciparum D10 trophozoite lysates; single well", "units": {"% Inhibition @ 10 uM": "%"}}
{"compound": "CCOC(=O)c1cnc2ccc(OCC)cc2c1NCCc1ccccc1", "% Inhibition @ 10 uM": -6.86}
{"compound": "CCOCCCNC(=O)C1CCCCN1S(=O)(=O)c1ccc(F)cc1", "note": "(centres unmarked)", "% Inhibition @ 10 uM": -9.05}
{"compound": "Cc1oc2ccc(O)c(CN(C)Cc3ccccc3)c2c1C(=O)NC1CCCCC1", "% Inhibition @ 10 uM": -2.99}
{"compound": "COc1cc(OC)c(-n2c(C)cc(/C=C3\\C(=N)N4C(C)=CSC4=NC3=O)c2C)cc1Cl", "% Inhibition @ 10 uM": -1.17}
{"compound": "CCCCNC(=O)C1CC(c2ccc(F)cc2)=NO1", "note": "(centres unmarked)", "% Inhibition @ 10 uM": -2.16}
{"compound": "CCOC(=O)N1CCN(C(=O)Cn2ncn3nc(-c4cccs4)cc3c2=O)CC1", "% Inhibition @ 10 uM": -1.3}
{"compound": "O=C(O)C1C2CCC(O2)C1C(=O)Nc1ccc(O)cc1", "note": "(centres unmarked)", "% Inhibition @ 10 uM": 0.231}
{"compound": "CC(C)(C)c1ccc(/C=C2\\N=C(c3ccccc3F)OC2=O)cc1", "% Inhibition @ 10 uM": -2.05}
{"compound": "COc1cc(OC)cc(-c2cc3nc(C)c(CCC(=O)NC(C)c4ccccc4)c(C)n3n2)c1", "note": "(centres unmarked)", "% Inhibition @ 10 uM": 1.26}
{"compound": "Cc1nc2nc(C)c(CCC(=O)O)c(C)n2n1", "% Inhibition @ 10 uM": 2.39}
{"compound": "C=CCNC(=O)/C(C#N)=C/c1c(Oc2cccc(C)c2C)nc2ccccn2c1=O", "% Inhibition @ 10 uM": 3.63}
{"compound": "CC1=C(C(=O)Nc2ccc(Br)cc2)C(c2ccc(Cl)cc2)NC(=O)N1", "note": "(centres unmarked)", "% Inhibition @ 10 uM": 1.35}
{"compound": "Cc1cc(C(F)F)n2nc(C(=O)Nc3c(F)cc(F)cc3Br)nc2n1", "% Inhibition @ 10 uM": -1.28}
{"compound": "COc1cccc(CN2CCN(Cc3ccccc3Cl)CC2)c1OC", "% Inhibition @ 10 uM": -5.23}
{"compound": "O=C(CSc1nc2ccccc2s1)Nc1ccc(Cl)c(C(=O)O)c1", "% Inhibition @ 10 uM": 2.7}
{"compound": "COc1ccc(C(=O)NCC(C)(C)CNC(=O)c2ccc(OC)cc2)cc1", "% Inhibition @ 10 uM": 5.18}
{"compound": "Oc1nc2cnccc2n1-c1ccccc1", "% Inhibition @ 10 uM": -8.21}
{"compound": "COCCNS(=O)(=O)c1cc(-c2nn(C)c(=O)c3ccccc23)ccc1C", "% Inhibition @ 10 uM": -3.96}
{"compound": "CCCCN1C(=O)NC(=O)/C(=C\\c2cn(Cc3ccccc3)c3ccccc23)C1=O", "% Inhibition @ 10 uM": -5.01}
{"compound": "Cc1ccc(S(=O)(=O)N2CCC(C(=O)N3CCC(C(=O)NCCc4ccccc4)CC3)CC2)cc1", "% Inhibition @ 10 uM": 2.05}
{"compound": "Cc1cccc(CN2CCN(c3cccc(Cl)c3)CC2)c1", "% Inhibition @ 10 uM": -3.71}
{"compound": "O=C(NC1CC1)c1cc2nc(-c3ccco3)cc(C(F)(F)Cl)n2n1", "% Inhibition @ 10 uM": -17}
{"compound": "Cc1ccc(C(C#N)NC(=O)[C@H](CC(C)C)NC(=O)c2ccc(-c3ccccc3)cc2C)o1", "note": "(some centres unmarked)", "% Inhibition @ 10 uM": 1.71}
{"compound": "O=C(O)CCN(CCC(=O)O)c1nnc(SCc2ccccc2)s1", "% Inhibition @ 10 uM": 3.27}
{"compound": "CNS(=O)(=O)c1cn(CC(=O)NCCOC)cc1S(=O)(=O)NC", "% Inhibition @ 10 uM": -5.9}
{"compound": "N#CCCN1c2ccccc2Sc2ccccc21", "% Inhibition @ 10 uM": -7.14}
{"compound": "CCOC(=O)c1cc2ccccc2n1C", "% Inhibition @ 10 uM": 4.79}
{"compound": "CCN(CCN(C)C)Cc1ccc2c(c1)OCCO2", "% Inhibition @ 10 uM": -0.0648}
{"compound": "Cn1c(=O)[nH]c(=O)c2c1nc(SCCc1ccccc1)n2Cc1ccccc1", "% Inhibition @ 10 uM": -0.968}
{"compound": "O=C(/C=C/c1ccccc1Cl)NCc1ccccc1", "% Inhibition @ 10 uM": -0.351}
{"compound": "CCCCN1CN(CCc2ccccc2)CNC1=S", "% Inhibition @ 10 uM": -5.62}
{"compound": "S=c1nc(-c2ccccc2)n(Cc2ccccc2)c2c1CCCC2", "% Inhibition @ 10 uM": -6.7}
{"compound": "CCOc1ccc(/C=C2/NC(=O)N(Cc3ccc(F)cc3)C2=O)c(OCC)c1", "% Inhibition @ 10 uM": -0.643}
{"compound": "Cc1ccccc1CN1CCN(Cc2cccc(F)c2)CC1", "% Inhibition @ 10 uM": 17.7}
{"compound": "CCOC(=O)c1ccc(OCC2c3cc(OC)c(OC)cc3CCN2C(=O)c2ccc(F)cc2)cc1", "note": "(centres unmarked)", "% Inhibition @ 10 uM": 10.9}
{"compound": "COC(=O)c1sc(N2C(=O)c3oc4ccccc4c(=O)c3C2c2ccc(C)o2)nc1C", "note": "(centres unmarked)", "% Inhibition @ 10 uM": 2.16}
{"compound": "O=C(NCc1ccc(F)cc1)c1cc(-c2ccc(F)cc2)on1", "% Inhibition @ 10 uM": 0.0654}
{"compound": "O=C(O)Cn1c(SCC(=O)c2ccc(Br)cc2)nc2ccsc2c1=O", "% Inhibition @ 10 uM": 4.49}
{"compound": "CCOC(=O)N1CCN(S(=O)(=O)c2c(C)cc(C)cc2C)CC1", "% Inhibition @ 10 uM": 6.11}
{"compound": "Cc1cc(C)nc(SCC(=O)Nc2ccc(Br)cn2)n1", "% Inhibition @ 10 uM": 2.45}
{"compound": "O=[N+]([O-])c1ccc(-c2ccc(-c3nc(-c4ccccc4)c(-c4ccccc4)[nH]3)o2)cc1", "% Inhibition @ 10 uM": -0.216}
{"compound": "Cc1nc(C2CC(=O)OC23CCCCC3)cs1", "note": "(centres unmarked)", "% Inhibition @ 10 uM": 3.15}
{"compound": "Oc1ccc(CN2CCCCC2)c2cccnc12", "% Inhibition @ 10 uM": -0.551}
{"compound": "COc1ccc(-c2cn3nc(N4CCC(C(=O)NCCN5CCCCC5)CC4)sc3n2)cc1", "% Inhibition @ 10 uM": 1.72}
{"compound": "CCOC(=O)c1c(C)c(C(=O)NC(C)COC)c(C)n1Cc1ccccc1", "note": "(centres unmarked)", "% Inhibition @ 10 uM": -3.44}
{"compound": "O=c1oc2ccccc2n1Cc1c(F)cccc1Cl", "% Inhibition @ 10 uM": -0.725}
{"compound": "COc1ccc2[nH]c3c(=O)n(Cc4ccc(C(=O)N5CCCC5)cc4)c(=S)[nH]c3c2c1", "% Inhibition @ 10 uM": 4.28}
{"compound": "Cc1ccc(C)c(OCCCN2CCCC2)c1", "% Inhibition @ 10 uM": 1.57}
{"compound": "CC(C)(C)c1ccc(C(=O)Nc2ncccn2)cc1", "% Inhibition @ 10 uM": 3.66}
{"compound": "CN(CCNC(=O)c1nn(C)c2c1CSc1ccccc1-2)Cc1ccccc1", "% Inhibition @ 10 uM": -3.51}
